According to PubChem BioAssay AID493208 (National Center for Advancing Translational Sciences (NCATS), 2011):
Out of some 44,000 compounds screened, about 340 (0.77%) were called active. Not shown: some 5% with an inconclusive outcome. Calls follow the shape of the dose curve; as a rule, active = well fitted inhibition curve with a large enough effect; inconclusive = small, poorly fitted or top-dose-only effect; inactive = flat fitted curve, though single readings scatter. The list shows a part of the results.

Test: Acumen qHTS Assay for Inhibitors of the mTORC1 Signaling Pathway in MEF (Tsc2-/-, p53-/-) Cells: Sytravon; also: nearly all actives have a fitted effect of over 50% in size;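 as to activity change, negative = inhibition: plate controls were DMSO for no effect and rapamycin for full effect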
Conditions: phospho-rpS6 immunofluorescence/PI, 24 h; series mostly up to 38.3 µM; activity change, negative = inhibition: at the top concentration
How it was run: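 Compounds act on Tsc2-/-, p53-/- fibroblasts carrying an empty vector for 24 h before fixation and dual staining for phospho-S6 and DNA (propidium iodide). Values are percentages of cells above a rapamycin-defined pS6/PI threshold.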
Potency is read from the fitted curve at half-maximal effect.

Structure (SMILES)	activity change, negative = inhibition	Potency
COCCCNC(=O)c1ccc2c(c1)N(Cc1ccccc1)C(=O)c1ccccc1S2	inactive: 7.98%	–
O=C(CSc1nc(=O)n(CCN2CCOCC2)c2c1CCC2)Nc1ccccc1	inactive: 2.56%	–
COc1ccccc1CNC(=O)CCCn1c(=O)c2ccccc2n(CC(=O)Nc2c(C)cc(C)cc2C)c1=O	inactive: 0.897%	–
CCn1cc(C(=O)NCc2ccccc2Cl)c(=O)c2cc(S(=O)(=O)N3CCc4ccccc4C3)ccc21	inactive: -2.58%	–
CCOC(=O)c1sc(NC(=O)C2c3ccccc3Oc3ccccc32)c(C(=O)OCC)c1C	inactive: 6.2%	–
COc1ccc(C(=O)Nc2nnc(S(=O)(=O)N(CC(C)C)c3ccc(C)cc3)s2)cc1OC	inactive: 6.29%	–
O=C(Nc1cc(C(F)(F)F)ccc1Cl)c1cc(-c2ccc3c(c2)OCCO3)on1	inactive: -4.75%	–
COC(=O)c1cccnc1-n1c(=O)c2cccnc2n(CC(=O)Nc2ccc(C)cc2C)c1=O	inactive: -2.63%	–
Cc1ccc2c(c1)N(C(=O)CCC(=O)NCc1ccccc1Cl)CC(C)O2 (centres undefined)	inactive: 0.177%	–
O=C(Nc1ccc(S(=O)(=O)Nc2ncccn2)cc1)c1ccccc1Cl	inactive: 1.96%	–
COc1ccc(NC(=O)CSc2nnc(NC(=O)Nc3ccccc3)s2)cc1OC	inactive: -2.85%	–
CC(NC(=O)Cn1c(=O)oc2cc(S(=O)(=O)NCc3ccccc3)ccc21)c1ccccc1 (centres undefined)	inactive: -0.0526%	–
Cc1ccccc1Nc1nc(-c2cccc(Cl)c2)c2c(n1)-c1ccccc1OC2	inactive: -10.5%	–
CC(=O)c1ccc(NC(=O)COc2ccccc2-c2nc(-c3cccc(C)c3)no2)cc1	inactive: -0.765%	–
CCOCCCNc1ncnc2onc(C)c12	inactive: -0.465%	–
Cc1ccc(Cl)cc1N1CCN(S(=O)(=O)c2ccc3c(c2)CC(C)N3C(=O)C2CCC2)CC1 (centres undefined)	inactive: 0.73%	–
CC(=O)c1ccc(NC(=O)c2sc(-n3nc(C)c(Cc4ccccc4)c3C)nc2C)cc1	inactive: 0.81%	–
Cc1cccc(NC(=O)Nc2nnc(N(C)Cc3ccccc3)s2)c1	inactive: -2.48%	–
COc1ccc(-c2nn3c(-c4ccccc4C)nnc3c3ccccc23)cc1	inactive: 2.33%	–
CN(C(=O)Cn1cc(S(=O)(=O)Cc2ccccc2Cl)c2ccccc21)c1ccccc1	inactive: 1.43%	–

Structure (SMILES)	activity change, negative = inhibition	Potency
Cn1c(=O)c2c(ncn2CC(=O)Nc2cccc(Cl)c2Cl)n(C)c1=O	inactive: 14.6%	–
Cc1ccccc1C(=O)NC1(C(F)(F)F)C(=O)Nc2c1c(=O)[nH]c(=O)n2-c1ccc(F)cc1 (centres undefined)	inactive: -2.71%	–
CCN(Cc1ccccc1)Cc1c(O)ccc2c(=O)c(-c3ccc(Cl)cc3Cl)coc12	inactive: -2.49%	–
Cc1noc(/C=C/c2cccs2)c1S(=O)(=O)N1CCC(C(=O)NCc2ccccc2Cl)CC1	inactive: -4.06%	–
CCCCNC(=O)CCCn1c(=O)c2ccccc2n(CC(=O)Nc2ccccc2OCC)c1=O	inactive: -9.93%	–
CCCc1cnc2c(c1SCC(=O)Nc1ccc(C)c(Cl)c1)c(=O)n(C)c(=O)n2C	inactive: -17.6%	–
COc1cc(/C=C(\C#N)c2nc3ccccc3[nH]2)ccc1OCc1cccc(C(F)(F)F)c1	inactive: 12.4%	–
CCOc1ccccc1NC(=O)c1ccc(F)c(S(=O)(=O)NCc2ccc3c(c2)OCO3)c1	inactive: 3.07%	–
CCOc1ccccc1NC(=O)N1CCc2c(sc(C)c2CC)C1c1ccccc1 (centres undefined)	inactive: -6.93%	–
COc1ccc(CNc2ncnc3onc(-c4ccc(F)cc4)c23)cc1	inactive: -8.83%	–
CCOC(=O)c1c(C)[nH]c(CCC(=O)NCCCN2CCN(c3cc(C)ccc3C)CC2)c1C	–	active: 13.1 µM
COc1ccccc1CNC(=O)CN1C(=O)CSc2ccc(S(=O)(=O)N(C)C)cc21	inactive: 3.89%	–
O=C(CCNS(=O)(=O)c1ccc2c(c1)CCN2C(=O)C1CC1)N1CCN(c2ccccc2F)CC1	inactive: -17.5%	–
CCOc1ccc(S(=O)(=O)N2CCN(c3ccc(Cl)c(Cl)c3)CC2)c2ccccc12	inactive: -3.59%	–
CC(=O)OC(COc1ccccc1)Cn1cnc2cc(C)c(C)cc21 (centres undefined)	inactive: -15.2%	–
COc1ccc(NC(=O)CC2C(=O)N(c3ccc(C)cc3)C(=O)N2C2CCCCC2)cc1 (centres undefined)	inactive: -2.2%	–
O=C(CCSCc1ccccc1Cl)N1CCN(c2cccc(Cl)c2)CC1	inactive: 12.7%	–
CCCn1c(CCC(=O)Nc2cc(Cl)c(OC)cc2OC)nc2cccnc21	inactive: -20.3%	–
Cc1ccc(C)c(NC(=O)CSc2ncc3c(n2)-c2ccc(Cl)cc2N(C)S3(=O)=O)c1	inactive: 2.28%	–
CCn1nc(-c2ccccc2)c(-c2ccccc2)c(C(=O)Nc2nc(C)c(C(=O)N(C)C)s2)c1=O	inactive: -10.8%	–

Structure (SMILES)	activity change, negative = inhibition	Potency
CCc1nc2cccnc2n1-c1ccc(CC(=O)Nc2ccc(C)cc2)cc1	inactive: -3.16%	–
O=C(Cn1c(=O)n(-c2ccccc2Cl)c(=O)c2sc3ccccc3c21)N1CCCC1	inactive: -8.4%	–
CCOc1ccc(CNC(=O)c2cnc3sc(N(CC)CC)nn3c2=O)cc1OC	inactive: 10.4%	–
CC(C)N(Cc1ccccc1)C(=O)CN1C(=O)COc2ccc(S(=O)(=O)NC3CCCC3)cc21	inactive: 1.73%	–
Cc1cc(C)cc(NC(=O)CCc2nnc3n(CC(C)C)c(=O)c4ccccc4n23)c1	inactive: -0.7%	–
Cc1ccc(NC(=O)CSc2nc3nccnc3c(=O)n2CCc2c[nH]c3ccccc23)cc1	inactive: 0%	–
CCN(C(=O)CSc1nc2ccccc2n1CC(=O)Nc1ccccc1C)c1ccccc1	inactive: -3.23%	–
COc1cc(CNc2ccc3[nH]c(=O)[nH]c3c2)ccc1OCc1ccccc1F	inactive: -1.82%	–
COc1ccc(-n2ccn(Cc3ccccc3Cl)c(=O)c2=O)cc1OC	inactive: 4.95%	–
CN(C)c1ccc(C(CNS(=O)(=O)c2ccc(Br)cc2)N2CCCC2)cc1 (centres undefined)	inactive: 0.342%	–
CCN(CC)S(=O)(=O)c1ccc(NC(=O)CCc2c(C)nc3cc(-c4ccc(Cl)cc4)nn3c2C)cc1	–	active: 11.7 µM
COc1ccc(Cl)cc1NC(=O)CSc1ccc(-c2sc(C)nc2C)nn1	inactive: 0.128%	–
CC(C)Cc1nn2c(=O)cc(COC(=O)c3ccc4c(c3)OCO4)nc2s1	inactive: 0.936%	–
CCOC(=O)c1cc2c(=O)n3ccccc3nc2n(CCCOC)c1=NC(=O)C(C)(C)Oc1ccc(Cl)cc1	inactive: 1.88%	–
COc1ccc(CNC(=O)CSc2nc3ccsc3c(=O)n2Cc2ccccc2Cl)cc1	inactive: -23.3%	–
CCc1ccc(N2C(=O)CC(c3cc(OC)ccc3OC)C3=C2COC3=O)cc1 (centres undefined)	inactive: -24.5%	–
O=C(Nc1ccc2oc(-c3cccnc3)nc2c1)c1ccc(-c2ccc(Cl)cc2)o1	inactive: -2.22%	–
Cc1cc2oc(C(=O)Nc3sc4c(c3C(=O)NCC3CCCO3)CCC4)cc(=O)c2cc1C (centres undefined)	inactive: 3.92%	–
Cc1ccc(NC(=O)Cn2ncn3c(cc4ccccc43)c2=O)c(C)c1	inactive: -0.95%	–
